# According to the supplement of paper PMC3334620:
# Over roughly 33,000 sequences, “E-score (-0.5 to 0.5)” has its median near -0.04; the highest 2% begin near 0.36. Some of the results follow.
# Biological target: T1, Hmlalpha2 (UniProt P0CY09)
# T1 sequence: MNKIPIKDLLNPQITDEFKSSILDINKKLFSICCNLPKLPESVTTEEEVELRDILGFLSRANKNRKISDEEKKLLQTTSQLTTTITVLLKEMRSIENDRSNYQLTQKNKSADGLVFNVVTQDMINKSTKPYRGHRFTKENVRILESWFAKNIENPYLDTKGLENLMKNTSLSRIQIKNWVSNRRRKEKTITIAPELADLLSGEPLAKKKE
# Assay: PBM E-score (8-mer binding enrichment) (E-score (-0.5 to 0.5)); higher = stronger / more preferred TF binding; most listed sequences are background and not binding sites
# Details: protein concentration: 200 nM; construct: GST-full length
# Outline: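 Detection of bound protein used fluorescent anti-GST, with scans normalised by masliner. The proteins were GST-tagged yeast transcription factors applied at about 100-200 nM to universal all-10-mer Agilent arrays made double-stranded by primer extension. Each ungapped eight-base word, pooled with its reverse complement, was scored with an E-score from the Universal PBM Analysis Suite.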
row,Sequence,PBM E-score
1,GCCAGTGA,-0.215
2,CGCTGAAC,0.0561
3,AACGACGC,0.184
4,ACTCTCCA,-0.166
5,ATCCCTTC,-0.192
6,CGCCCAAA,0.065
7,CAACCCGC,-0.0126
8,AATTCTTG,0.12
9,AGTCGCAC,-0.178
10,AGTGAGTG,-0.0617
11,CGATTCCC,-0.0709
12,AGCCGCCC,-0.109
13,CTATACTC,-0.145
14,CTCGCGGC,-0.167
15,CGTGTAGC,0.344
16,CCGAACAG,-0.14
17,ACTCTAAC,0.0745
18,GATGAATC,-0.0427
19,ACAAAATA,0.158
20,ATTGTAGC,0.0451
21,CATATCAC,0.131
22,AGGTATCA,-0.112
23,ATCTATCC,-0.202
24,CCCACTCA,-0.134
25,CATCGTAG,-0.069

row,Sequence,PBM E-score
1,CCTAGTTA,0.0614
2,ACGCTTAC,0.0906
3,GGACCAAA,-0.0464
4,GGCCATAC,-0.138
5,ACGAGTCC,-0.0991
6,ACTAAGAA,0.0526
7,AGGAACAA,-0.0757
8,TACATTGA,0.35
9,AGTTCGGC,-0.0823
10,TATGAGGA,-0.0382
11,TATCCCAA,0.0522
12,ACGTTACG,0.264
13,AGACTTAG,-0.152
14,GTAACCCA,0.214
15,ACGACACG,0.353
16,TCCCGAGA,-0.229
17,GCACAAGA,-0.0559
18,AGCTTTCG,-0.139
19,CAAGGTCC,-0.193
20,ACCAACGA,-0.0432
21,GTCACCAC,-0.0983
22,CTTTGGAC,-0.0148
23,CAAGCCTA,0.0737
24,ATTCTCGG,-0.0411
25,CCAGGGTA,-0.192

row,Sequence,PBM E-score
1,CACTAGCG,-0.0565
2,GCGGGCTA,-0.197
3,CCGTACTA,-0.127
4,ACGAGCAT,0.02
5,AAACCCCG,0.0184
6,GATTACTA,0.213
7,TCGACGCA,0.0175
8,CATTAAGC,-0.0386
9,CTGTCATC,-0.158
10,GTATATAC,0.155
11,AAACTCCG,-0.0306
12,ACCTTTAA,0.0867
13,AAATGAGG,-0.104
14,GCCTCGCC,-0.213
15,ATGTCGAC,0.27
16,AATGTGAT,0.196
17,GTCATGAA,-0.00218
18,AAGATCGA,-0.076
19,CTCGTCCA,-0.0515
20,AGGGTGTA,0.186
21,ACGGTCGC,-0.157
22,GATTCACC,-0.147
23,GTCGACCA,-0.0364
24,AGCGCACC,-0.244
25,AGGCTACT,-0.204

row,Sequence,PBM E-score
1,AAAGGACC,-0.247
2,CTCTGAGC,-0.0568
3,CTACTGGC,-0.355
4,CTGGCCCC,-0.254
5,AACACTCG,0.0192
6,GGTCCACA,-0.072
7,ATGACCAA,0.0477
8,CTCCAGCA,-0.338
9,AATAGCGC,0.0666
10,GCCCCTAC,-0.234
11,AGTTAAAA,0.282
12,GGATAGCC,-0.247
13,ACAAGGTA,0.291
14,CCGAACAC,0.121
15,AAGTATGA,0.0611
16,CGGGAACC,-0.205
17,AAGTGTTC,0.0292
18,GTAGTCAA,0.131
19,AAGAGAAT,-0.02
20,ATTGCTAC,0.0786
21,GTGTAACA,0.411
22,TCGTAAGA,-0.0353
23,GACTTGGA,-0.228
24,CGACGAAA,0.097
25,AATTCCAT,0.0359

row,Sequence,PBM E-score
1,CGGTCTGC,-0.133
2,ATTGTCCC,-0.103
3,GATAACCC,-0.124
4,ACCCGGTG,-0.111
5,ACGATGAA,0.174
6,CAAATGGC,-0.0309
7,ACGGTGGC,-0.235
8,AAAGAAGA,-0.057
9,CGTTGGAC,0.00625
10,CCGGTATC,-0.219
11,AACGCAGG,0.0539
12,ACCGTAGA,0.0129
13,GTACTTCA,0.248
14,CTATCGAA,0.00957
15,ACGCGGAA,0.209
16,AACCACCG,-0.211
17,CATCATCA,0.0483
18,GACATTTA,0.191
19,AGCACTCA,-0.16
20,CGTACACG,0.354
21,AAGGGCGG,-0.169
22,ACGACACC,-0.157
23,CATCTCAG,-0.12
24,CATGCAAA,0.306
25,CAGCTGCG,-0.141

row,Sequence,PBM E-score
1,CACCATAG,-0.203
2,CATAACAC,0.397
3,CCAACCTA,-0.139
4,GGCCAAAA,-0.0125
5,AGATGCGG,-0.145
6,CGAATCCC,-0.0202
7,ACACTACT,0.105
8,AAATTCAA,0.0676
9,CATCCTAA,-0.0863
10,TGACTTAA,0.0506
11,ACACAAGC,0.331
12,CTTTGTAC,0.2
13,ATACCCAT,0.106
14,GGTCTTAA,-0.101
15,ACTGCCAG,-0.137
16,AACACGTG,0.348
17,CTAGGCCA,-0.33
18,TCTTGAAA,0.103
19,CATGACAA,0.166
20,GAGAATAC,0.242
21,AAGCCGCG,0.0123
22,CCCCGTCC,-0.382
23,CCGCATGA,-0.0972
24,CCTCTAGC,-0.184
25,ACGCCATA,-0.0309

row,Sequence,PBM E-score
1,CAGCCAGG,-0.111
2,ATAGTATC,0.147
3,AATGGACC,0.0737
4,ACCTGATG,-0.103
5,AGCAAGTA,0.227
6,ACAGAATG,-0.013
7,ACATTTGC,0.123
8,AAAACGCA,0.171
9,ACAACCCG,0.126
10,GGCCGCTA,-0.245
11,AATTCGGG,-0.159
12,AAAGCCAG,-0.0722
13,GGTCTTGA,-0.124
14,CTGCTATC,-0.154
15,CTGAGGAA,-0.219
16,AGGGTTAA,-0.00153
17,CTTTCGGA,-0.329
18,GAGCATTA,0.064
19,AGGAACGC,-0.188
20,GCCTGAGC,-0.327
21,ACGTGCAC,0.0641
22,ACTACGGG,-0.182
